Hit rate of the full screen: of about 310,000 compounds, about 14,000 (4.5%) showed an effect of 50% or more. The effect is printed as a negative number. The list shows a part of the results.
molecular target: human ether-à-go-go-related gene (hERG) potassium channel (human, UniProt Q12809); assay: primary screen, population patch clamp on CHO cells stably expressing hERG
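Also: peak tail current of the secondary pulse compared with the same well before compound.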

human ether-à-go-go-related gene (hERG) potassium channel, sequence (Q12809 whole entry, looked up): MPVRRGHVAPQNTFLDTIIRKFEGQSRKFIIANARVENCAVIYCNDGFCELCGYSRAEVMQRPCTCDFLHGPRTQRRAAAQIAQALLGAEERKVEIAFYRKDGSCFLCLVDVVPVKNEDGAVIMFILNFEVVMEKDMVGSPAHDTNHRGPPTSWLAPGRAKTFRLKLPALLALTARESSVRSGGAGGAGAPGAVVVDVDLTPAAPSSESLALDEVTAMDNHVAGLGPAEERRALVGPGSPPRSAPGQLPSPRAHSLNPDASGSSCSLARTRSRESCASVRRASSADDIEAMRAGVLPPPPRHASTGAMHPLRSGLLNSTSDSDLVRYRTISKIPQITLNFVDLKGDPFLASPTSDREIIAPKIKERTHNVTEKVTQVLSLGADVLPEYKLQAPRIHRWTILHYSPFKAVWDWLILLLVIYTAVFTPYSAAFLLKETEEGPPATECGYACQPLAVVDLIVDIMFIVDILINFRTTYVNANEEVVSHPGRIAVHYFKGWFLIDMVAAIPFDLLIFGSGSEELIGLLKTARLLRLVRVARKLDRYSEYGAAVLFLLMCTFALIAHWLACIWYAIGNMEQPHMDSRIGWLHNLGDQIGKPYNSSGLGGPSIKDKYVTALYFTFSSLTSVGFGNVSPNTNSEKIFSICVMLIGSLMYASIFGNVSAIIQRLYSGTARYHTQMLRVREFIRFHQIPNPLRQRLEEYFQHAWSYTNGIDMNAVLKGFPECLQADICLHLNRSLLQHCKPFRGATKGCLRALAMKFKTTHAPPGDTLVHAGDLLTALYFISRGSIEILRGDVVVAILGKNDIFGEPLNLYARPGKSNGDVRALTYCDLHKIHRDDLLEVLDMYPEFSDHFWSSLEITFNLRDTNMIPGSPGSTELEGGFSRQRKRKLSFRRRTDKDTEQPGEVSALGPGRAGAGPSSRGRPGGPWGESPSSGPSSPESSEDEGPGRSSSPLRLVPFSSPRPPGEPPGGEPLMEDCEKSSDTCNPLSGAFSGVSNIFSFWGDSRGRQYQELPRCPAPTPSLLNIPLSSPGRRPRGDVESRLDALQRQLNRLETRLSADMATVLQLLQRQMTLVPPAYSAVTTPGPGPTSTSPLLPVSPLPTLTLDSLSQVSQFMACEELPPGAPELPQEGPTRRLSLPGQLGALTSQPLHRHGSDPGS

Compared with Cc1ccc(CNC(=O)c2ccc3c(c2)NC(=O)CS3)cc1, COc1ccc(C(=O)NCS(=O)(=O)c2ccc(C)cc2)cc1 is higher in “hERG current change (%, negative = inhibition) at 10uM” value: -12.2% for the first, -3.85% for the second.

Going from N#C/C(=C\c1cn(CCOc2ccccc2)c2ccccc12)C(=O)NCc1cccs1 to O=C1C(=O)N(CCO)C(c2ccccc2)/C1=C(\O)c1ccccc1 (centres unmarked), the “hERG current change (%, negative = inhibition) at 10uM” value rises from 0.688% to 8.55%.

Going from CS(=O)(=O)c1ccc(Oc2ccc(-c3nnco3)cc2)c([N+](=O)[O-])c1 to COc1ccc(CNS(=O)(=O)c2ccc3c(c2)C(C)(C)C(=O)N3C)cc1, the “hERG current change (%, negative = inhibition) at 10uM” value rises from -7.35% to 5.42%.

Going from CC(C)(C)C(=O)NCCc1nc2ccccc2n1CC(=O)c1ccc(Cl)cc1 to CC(=O)Nc1ccc(C(=O)N(C2=NC(C)CS2)c2ccc(Cl)cc2)cc1 (centres unmarked), the “hERG current change (%, negative = inhibition) at 10uM” value rises from -33.2% to -7.39%.

First: Cc1ccc(NC(NC(=O)c2ccccn2)C(Cl)(Cl)Cl)cc1 (centres unmarked)
Second: COCCN(C(=S)Nc1ccc(C)cc1)C(C)c1cccnc1 (centres unmarked)
The “hERG current change (%, negative = inhibition) at 10uM” value of the first is lower: -26.2% for the first, -22.9% for the second.

Going from CCN(CC)S(=O)(=O)c1cc(C(=O)n2cccn2)c(Cl)cc1Cl to CCN(CC)S(=O)(=O)c1ccc(C)c(NC(=O)/C=C/c2cccs2)c1, the “hERG current change (%, negative = inhibition) at 10uM” value falls from -2.45% to -6.14%.

First: CNC(=S)NNC(=O)c1ccc(=O)n(Cc2cccc(C(F)(F)F)c2)c1
Second: CNC(=S)NNC(=O)c1cccn(Cc2cccc(Cl)c2)c1=O
The “hERG current change (%, negative = inhibition) at 10uM” value of the first is higher: 17.2% for the first, -14.5% for the second.

First: O=C(c1ccccc1-c1nc2ccccc2[nH]1)N1CCCCC1
Second: O=C(CCc1ccccc1)NCCc1nc2ccccc2[nH]1
The “hERG current change (%, negative = inhibition) at 10uM” value of the first is lower: 5.53% for the first, 28.7% for the second.

Going from COc1cccc(C(=O)Nc2cc(S(=O)(=O)N3CCCCC3)ccc2OC)c1 to Cc1ccc(C(=O)Nc2nccs2)cc1S(=O)(=O)N1CCCCC1, the “hERG current change (%, negative = inhibition) at 10uM” value rises from -13.6% to -10.2%.

Going from COCCCNC(=O)CSc1nc2ccccc2c(=O)n1CCCC(=O)NCC1CCCO1 (centres unmarked) to CC(=O)c1ccc(N(C(=O)CNC(=O)c2cccs2)C(C(=O)NCC2CCCO2)c2ccccc2)cc1 (centres unmarked), the “hERG current change (%, negative = inhibition) at 10uM” value rises from -0.988% to 12.3%.

First: CCn1c(N2CCN(C(=O)/C=C/c3ccccc3)CC2)nc2ccccc21
Second: CC1CCN(c2c([N+](=O)[O-])c(=O)n(-c3ccccc3)c3ccccc23)CC1
The “hERG current change (%, negative = inhibition) at 10uM” value of the first is lower: -80.8% for the first, 7.21% for the second.

Going from CC1=C[C@@H](C)[C@@H](c2ccc(C(F)(F)F)cc2)OC1=O to CC1CN(Cc2nc3ccccc3c(=O)[nH]2)CC(C)O1 (centres unmarked), the “hERG current change (%, negative = inhibition) at 10uM” value rises from 7.01% to 16.6%.

First: CCN(CC)CCCNC(=O)c1nn(-c2cccc(OC)c2)c(=O)c2ccccc12
Second: CC(C)CCNC(=O)C(Cc1ccccc1)NS(=O)(=O)c1ccc2c(c1)c(=O)n(C)c(=O)n2C (centres unmarked)
The “hERG current change (%, negative = inhibition) at 10uM” value of the first is lower: -70.6% for the first, -17.9% for the second.

First: Nc1ccc(S(=O)(=O)c2ccc(N)cc2)cc1
Second: O=C(NC1CCN(Cc2ccccc2)CC1)c1cccc(S(=O)(=O)Nc2ccc(Br)cc2)c1
The “hERG current change (%, negative = inhibition) at 10uM” value of the first is higher: 6.8% for the first, -59.7% for the second.

Compared with CC(Sc1nc2ccccc2s1)C(=O)NC1CCCc2ccccc21 (centres unmarked), S=C(NCc1ccccc1)N1CCc2ccccc2C1 is higher in “hERG current change (%, negative = inhibition) at 10uM” value: -21.9% for the first, -1.63% for the second.

Compared with CS(=O)(=O)N1CCc2nc(-c3ccccc3)sc2C1, CSCCC(=O)N1CCCC(CNC(=O)c2ccc(-c3ccccc3)cc2)C1 (centres unmarked) is lower in “hERG current change (%, negative = inhibition) at 10uM” value: -25.7% for the first, -73.2% for the second.

Going from CCCNS(=O)(=O)c1ccc(CCC(=O)Nc2ccc3c(c2)OCCO3)cc1 to O=C(CCNC(=O)c1ccccc1Cl)Nc1cccc(S(=O)(=O)N2CCOCC2)c1, the “hERG current change (%, negative = inhibition) at 10uM” value rises from -7.35% to 0.307%.

Compared with S=c1[nH]nc(-c2cccnc2)o1, CCOc1cnc(-c2ccc(Cl)cc2)o1 is lower in “hERG current change (%, negative = inhibition) at 10uM” value: 18.1% for the first, 8.82% for the second.

Compared with CCOC(=O)c1ccc(N2C(=O)CC(Nc3ccc(CCO)cc3)C2=O)cc1 (centres unmarked), CCOC(=O)c1ccc(NC(=O)CN2C(=O)CN(C(C)=O)C2=S)cc1 is higher in “hERG current change (%, negative = inhibition) at 10uM” value: -25.5% for the first, 2.08% for the second.

Going from O=C(O)CN1C(=O)/C(=C\c2ccc(OC(=O)c3ccco3)cc2)SC1=S to N/C(=N\OC(=O)c1ccco1)c1ccc(Br)cc1, the “hERG current change (%, negative = inhibition) at 10uM” value falls from 5.73% to 2.19%.

First: CCC(=O)N1c2ccc(S(=O)(=O)N3CCN(CC)CC3)cc2CC1C (centres unmarked)
Second: Cc1ccc(S(=O)(=O)N2CCCCC2)cc1NC(=O)COC(=O)C1(C)CC1(Cl)Cl (centres unmarked)
The “hERG current change (%, negative = inhibition) at 10uM” value of the first is higher: 16.7% for the first, -26% for the second.

Going from CCCN(CC(=O)Nc1ccccc1C)C(=O)CSc1ccccc1C to Cc1c(Cl)cccc1NC(=O)CNc1ccccc1F, the “hERG current change (%, negative = inhibition) at 10uM” value falls from 7.42% to -3.99%.

Compared with Cc1ccc(SCCN2CCC(C)CCC2=O)cc1 (centres unmarked), CN1C2CCC1CC(NC(=O)CSc1ccc(Cl)cc1)C2 (centres unmarked) is higher in “hERG current change (%, negative = inhibition) at 10uM” value: -25.6% for the first, -8.94% for the second.

Going from COc1ccccc1/C=C/C(=O)Nc1nc(N)n(-c2ccccc2)n1 to O=C1c2ccccc2C(=O)N1Nc1ccccc1, the “hERG current change (%, negative = inhibition) at 10uM” value rises from -33.8% to -2.11%.

First: CCN1CCN(C(=S)NCCOC)CC1.O=C(O)C(=O)O
Second: CCOC(=O)N1CCN(Cc2nc(-c3ccc(C)cc3)no2)CC1
The “hERG current change (%, negative = inhibition) at 10uM” value of the first is higher: 16.2% for the first, -17.6% for the second.

Going from CCOc1ccc(S(=O)(=O)N(C)CC(=O)NCCN2CCOCC2)cc1 to CCOC(=O)c1c(C)[nH]c(C(=O)CN2CCOCC2)c1C, the “hERG current change (%, negative = inhibition) at 10uM” value falls from 13.9% to -11.4%.

First: CCCCOC(=O)c1ccc(NC(=O)C(=O)NCc2ccco2)cc1
Second: O=C(COC(=O)c1ccc(Br)o1)NCCCc1ccccc1
The “hERG current change (%, negative = inhibition) at 10uM” value of the first is higher: 13.2% for the first, 2.15% for the second.

First: CC(OC(=O)Cc1ccccc1[N+](=O)[O-])C(=O)NC(=O)NC1CCCCC1 (centres unmarked)
Second: O=C(CN1C(=O)c2ccccc2S1(=O)=O)NC1CCCCC1
The “hERG current change (%, negative = inhibition) at 10uM” value of the first is lower: -10.8% for the first, 5.26% for the second.

Compared with CCN1CCCC1Cn1cnc2c([nH]c3ccc(OC)cc32)c1=O (centres unmarked), CC[C@H](C)NC(=O)CCCCCn1c(=S)[nH]c2c([nH]c3ccc(OC)cc32)c1=O is higher in “hERG current change (%, negative = inhibition) at 10uM” value: -66.1% for the first, 71.9% for the second.

Going from O=C(CCS(=O)(=O)c1cccc2nonc12)NCc1ccc(Cl)cc1 to O=C(Nc1ccn(Cc2ccc(Cl)cc2)n1)c1ccccc1, the “hERG current change (%, negative = inhibition) at 10uM” value falls from -22.5% to -33.1%.

First: Cc1cccc(C)c1NC(=O)CNC(=O)C(C)N1CCN(c2cccc(Cl)c2)CC1 (centres unmarked)
Second: COc1ccc(N2CCN(C(=O)COc3ccc(Cl)cc3Cl)CC2)cc1
The “hERG current change (%, negative = inhibition) at 10uM” value of the first is lower: -18.4% for the first, -14.9% for the second.

First: COC(=O)c1ccc2c(=O)n(Cc3ccc(C(=O)NC4CCCC4)cc3)c(=S)[nH]c2c1
Second: CCOC(=O)C1=C(C)N=C2SCCC(=O)N2C1c1ccc(C(=O)OC)cc1 (centres unmarked)
The “hERG current change (%, negative = inhibition) at 10uM” value of the first is higher: -5.49% for the first, -11.8% for the second.

First: COc1ccc(C(c2nnnn2CC2CCCO2)N2CCN(c3ccccc3)CC2)cc1 (centres unmarked)
Second: COc1ccc(N2CCN(c3nc(NCCO)nc(N4CCOCC4)n3)CC2)cc1
The “hERG current change (%, negative = inhibition) at 10uM” value of the first is lower: -2.14% for the first, -1.07% for the second.

First: COC(=O)c1cc(NC(=O)c2cccs2)ccc1N1CCOCC1
Second: COc1ccc2c(c1)S/C(=C\C(=O)c1ccncc1)N2C
The “hERG current change (%, negative = inhibition) at 10uM” value of the first is higher: -1.74% for the first, -26.3% for the second.

First: COC(=O)NN=C1CCC(c2ccccc2)CC1 (centres unmarked)
Second: O=C(CC1SC(=Nc2ccc(O)cc2)NC1=O)Nc1ccccc1 (centres unmarked)
The “hERG current change (%, negative = inhibition) at 10uM” value of the first is higher: 5.89% for the first, 2.29% for the second.

First: COc1cc(CN2CCSCC2)cc(OC)c1OC
Second: COc1cc(C2N(c3cccc(Cl)c3)C(=O)C3CCCN32)cc(OC)c1OC (centres unmarked)
The “hERG current change (%, negative = inhibition) at 10uM” value of the first is lower: -5.22% for the first, -1.48% for the second.

First: Nc1ncnc2c1ncn2C1O[C@H](CO)[C@@H](O)[C@@H]1O (some centres unmarked)
Second: O=C(COc1ccc(Cl)cc1Cl)Nc1ccccn1
The “hERG current change (%, negative = inhibition) at 10uM” value of the first is lower: -8.74% for the first, -2.68% for the second.

Going from Clc1ccc(Cn2cc(/C=N/n3cnnc3)c3ccccc32)c(Cl)c1 to O=C(Nc1nc(-c2ccccn2)cs1)c1ccc(-c2ccccc2F)o1, the “hERG current change (%, negative = inhibition) at 10uM” value falls from 12.7% to 9.93%.

Compared with COc1ccc([C@@H]2[C@@H]3C(=O)N(C(C)(C)C)C(=O)[C@@H]3[C@]3(Cc4ccccc4)C(=O)N(c4cccc(Cl)c4)C(=O)N23)cc1, COC(=O)CN=C1OC(=O)N2C(=O)C3=C4[C@@H](C[C@H]5C(=O)N(c6ccccc6)C(=O)[C@H]5[C@H]4[C@@]12Cc1ccccc1)[C@H]1C(=O)N(c2ccccc2)C(=O)[C@H]1[C@H]3C is lower in “hERG current change (%, negative = inhibition) at 10uM” value: 6.35% for the first, 4.25% for the second.

Going from CCC(C)C(NC(N)=O)C(=O)NC1CCC(C)CC1 (centres unmarked) to CCCCC(CC)C1OCC(CN2CCCC2)O1 (centres unmarked), the “hERG current change (%, negative = inhibition) at 10uM” value rises from -4.7% to 3.29%.

Compared with Cc1ccc(COc2ccc(Br)cc2/C=N/O)cc1, Cc1ccc2c(c1)C(=O)C(=O)N2CCCOc1ccccc1C is lower in “hERG current change (%, negative = inhibition) at 10uM” value: 4.32% for the first, -15.9% for the second.

Going from O=C(NNC1=NCCCCC1)c1cccc([N+](=O)[O-])c1 to Cc1ccccc1OCc1nnc(SCC(=O)Nc2ccc3c(c2)OCO3)n1C, the “hERG current change (%, negative = inhibition) at 10uM” value falls from 4.78% to -2.99%.

First: CCCOc1ccc2ccccc2c1/C=C1\SC(=O)NC1=O
Second: COc1ccc(CCn2c(O)c(C=NC3CC3)c(=O)[nH]c2=O)cc1OC
The “hERG current change (%, negative = inhibition) at 10uM” value of the first is higher: 9.25% for the first, 8.67% for the second.

Going from CN(C)CCOC(=O)C12CC3CC(CC(C3)C1)C2.Cl to NC(=O)CN1CCCC1=O, the “hERG current change (%, negative = inhibition) at 10uM” value falls from 10.5% to 3.5%.

For CCC1OC23CCCCC2C(C#N)(C(=N)O3)C1(C#N)C#N (centres unmarked), the “hERG current change (%, negative = inhibition) at 10uM” value was 14.9%.

Source: publication PMC4336329 (PLoS ONE, 2015)
